Source: patent publication US5032398A, “Selective modification of the catalytic subunit of pertussis toxin” (priority 1986, dated 1991)
At least one read-out could not be matched to a standard name with certainty.

Target: pertussis toxin (Bordetella pertussis, UniProt P04977)
Test: Effect of detergents on the NADase activity of pertussis toxin (Example Four)
Assay type: biochemical
Details: 1 mM ATP, 10 mM DTT, relative to 1% CHAPS alone; for Fractional Activity with CHAPS: detergent 1 weight percent plus CHAPS 1%; for Fractional Activity without CHAPS: detergent 1 weight percent
Experimental: The pertussis toxin in the Examples comprised 50 μg of the toxin in a 500 μl solution of 10 mM sodium phosphate-50 mM sodium chloride-water solution having a pH of 7. The enzymatic activity was detected as the hydrolysis of nicotinamide labelled NAD and ion-exchange column chromatography to resolve the product from the substrate. Unless otherwise noted, the assay was initiated by adding 0.5 to 2.5 μg of the toxin to a reaction mixture for a final volume of 100 μl. The NADase reaction was terminated by adding 0.85 ml of ice-cold water. The entire 0.95 ml was then pipetted into a QAE-Sephadex column (chloride form) and the labelled nicotinamide eluted with 3 ml of water directly into a scintillation vial and counted. […] One unit of NADase activity is defined as 1 pmol NAD hydrolyzed per hour.
The effect of detergents on the NADase activity of pertussis toxin was measured in the presence of various detergents at a concentration of 1 weight percent in either the absence or presence of the detergent CHAPS (1 percent by weight). ATP was present in all assays in a concentration of 1 mM, and DTT concentration was 10 mM. Fractional activity is shown in Table III and is defined as activity divided by activity in the presence of 1% CHAPS. The value given is the average for two separate trials, and in each trial duplicates were measured for each condition.

Chain of pertussis toxin (P04977 35-269 limits assumed): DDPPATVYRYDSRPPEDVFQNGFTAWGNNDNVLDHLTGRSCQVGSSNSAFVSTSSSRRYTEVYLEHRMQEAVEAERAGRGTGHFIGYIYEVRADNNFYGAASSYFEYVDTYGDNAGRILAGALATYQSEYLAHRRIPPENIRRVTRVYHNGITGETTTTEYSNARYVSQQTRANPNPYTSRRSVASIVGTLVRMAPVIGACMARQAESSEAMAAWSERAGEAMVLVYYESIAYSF

SMILES	Fractional Activity with CHAPS	Fractional Activity without CHAPS
CCCCCCCCCCCCOCCOCCOCCOCCOCCOCCOCCOCCO [C12 E8, octaethyleneglycol dodecyl ether]	1.03	0.59
C[C@H](CCC(=O)NCCC[N+](C)(C)CC(O)CS(=O)(=O)[O-])[C@H]1CC[C@H]2[C@@H]3[C@H](O)C[C@@H]4C[C@H](O)CC[C@]4(C)[C@H]3C[C@H](O)[C@]12C (stereo partly shown) [CHAPSO, 3-[(3-cholamidopropyl)-dimethylammonio]2-hydroxyl-1-propane sulfonate]	1.04	1.05
CCCCCCCC[N+](C)(C)CCCS(=O)(=O)[O-] [Zwittergent-8]	0.41	0.15
CCCCCCCCCC[N+](C)(C)CCCS(=O)(=O)[O-] [Zwittergent-10]	0.18	0.05
CCCCCCCCCCCC[N+](C)(C)CCCS(=O)(=O)[O-] [Zwittergent-12]	0.39	0.02
CCCCCCCCCCCCCC[N+](C)(C)CCCS(=O)(=O)[O-] [Zwittergent-14]	0.68	0.03
C[C@H](CCC(=O)O)[C@H]1CC[C@H]2[C@@H]3[C@H](O)C[C@@H]4C[C@H](O)CC[C@]4(C)[C@H]3C[C@H](O)[C@]12C [cholic acid]	–	0.43
C[C@H](CCC(=O)O)[C@H]1CC[C@H]2[C@@H]3CC[C@@H]4C[C@H](O)CC[C@]4(C)[C@H]3C[C@H](O)[C@]12C [deoxycholic acid]	0.29	0.05
CCCCCCCCCCCCOS(=O)(=O)[O-].[Na+] [sodium dodecylsulfate]	0.03	0.02
CCCCCCCCCCCC(=O)N(C)CC(=O)O [sodium lauryl sarcosine]	0.01	0.01
